Out of some 310,000 compounds screened, about 14,000 (4.5%) showed an effect of 50% or more. Effects have a minus sign here. The list shows a part of the results.

Experimental findings from PMC4336329 (PLoS ONE, 2015) are described below.
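Further: peak tail current of the secondary pulse compared with the same well before compound.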

human ether-à-go-go-related gene (hERG) potassium channel, sequence (Q12809 whole entry, looked up): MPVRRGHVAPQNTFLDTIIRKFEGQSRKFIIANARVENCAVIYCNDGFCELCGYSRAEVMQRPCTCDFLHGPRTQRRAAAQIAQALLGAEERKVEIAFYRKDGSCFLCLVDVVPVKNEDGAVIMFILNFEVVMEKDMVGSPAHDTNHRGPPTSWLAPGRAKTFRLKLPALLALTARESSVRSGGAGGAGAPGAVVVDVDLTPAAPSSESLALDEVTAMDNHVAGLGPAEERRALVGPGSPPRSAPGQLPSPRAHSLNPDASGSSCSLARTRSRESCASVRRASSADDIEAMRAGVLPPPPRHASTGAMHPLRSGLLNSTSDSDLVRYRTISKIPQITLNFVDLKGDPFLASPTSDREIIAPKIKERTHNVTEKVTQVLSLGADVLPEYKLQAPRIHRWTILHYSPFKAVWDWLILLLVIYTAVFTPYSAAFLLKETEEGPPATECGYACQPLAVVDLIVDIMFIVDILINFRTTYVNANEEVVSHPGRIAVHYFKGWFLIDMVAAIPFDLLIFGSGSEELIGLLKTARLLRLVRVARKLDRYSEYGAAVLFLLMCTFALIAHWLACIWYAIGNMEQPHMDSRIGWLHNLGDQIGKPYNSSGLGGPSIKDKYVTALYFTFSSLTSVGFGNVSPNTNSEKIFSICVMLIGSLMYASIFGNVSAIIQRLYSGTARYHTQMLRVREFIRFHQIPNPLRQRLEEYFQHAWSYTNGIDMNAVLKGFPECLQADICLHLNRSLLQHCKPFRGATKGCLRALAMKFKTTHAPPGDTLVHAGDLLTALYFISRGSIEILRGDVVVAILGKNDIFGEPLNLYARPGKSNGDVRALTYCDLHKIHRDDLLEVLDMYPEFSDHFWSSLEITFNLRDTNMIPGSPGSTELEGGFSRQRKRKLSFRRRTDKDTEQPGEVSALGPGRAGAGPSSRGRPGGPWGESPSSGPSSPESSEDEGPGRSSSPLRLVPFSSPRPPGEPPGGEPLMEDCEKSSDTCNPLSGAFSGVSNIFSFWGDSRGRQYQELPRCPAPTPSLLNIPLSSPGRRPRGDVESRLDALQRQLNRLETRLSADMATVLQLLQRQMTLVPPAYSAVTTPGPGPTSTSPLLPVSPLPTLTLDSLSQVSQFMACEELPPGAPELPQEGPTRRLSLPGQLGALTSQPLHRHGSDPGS

This test addresses human ether-à-go-go-related gene (hERG) potassium channel (human, UniProt Q12809). As to the kind of experiment: primary screen, population patch clamp on CHO cells stably expressing hERG.
In the case of `COc1cccc(CC(NC(C)=O)C(=O)NC2CCN(S(=O)(=O)c3ccc(NC(C)=O)cc3)CC2)c1OC` (stereo not shown), the “hERG current change (%, negative = inhibition) at 10uM” value is reported as 20.5%.

`CCCC(=O)Oc1ccc(C2NC(=O)c3ccccc3O2)cc1` (stereo not shown): the “hERG current change (%, negative = inhibition) at 10uM” value is reported as 17.8%.

Take `O=C(NCCc1ccccn1)c1cccc(S(=O)(=O)N2CCc3ccccc32)c1`: the “hERG current change (%, negative = inhibition) at 10uM” value is -25%.

In the case of `CC(=O)c1ccc(N(C)C)cc1`, the “hERG current change (%, negative = inhibition) at 10uM” value is listed as 0.133%.

In the case of `Cc1ccccc1-n1c(O)c(C=Nc2ccc3c(c2)OCO3)c(=O)[nH]c1=O`, the “hERG current change (%, negative = inhibition) at 10uM” value amounted to 1.75%.

Regarding `Cn1nc(C(=O)NCc2ccccc2)c2ccccc2c1=O`, the “hERG current change (%, negative = inhibition) at 10uM” value was 16.6%.

Take `Cc1cc(N2CCN(C)CC2)nc2ccc(NC(=S)N3CCOCC3)cc12`: the “hERG current change (%, negative = inhibition) at 10uM” value is on record as -15.4%.

In the case of `Nc1nc(SCC(=O)N2N=C(c3ccc(Cl)cc3)CC2c2ccco2)n[nH]1` (stereo not shown), the “hERG current change (%, negative = inhibition) at 10uM” value is -5.6%.

Consider `COCCNc1nc(-n2nc(C)cc2C)nc2sc3c(c12)CCCC3`, for which the “hERG current change (%, negative = inhibition) at 10uM” value was -25.2%.

Take `Clc1ccc(OCc2nnc(SCc3nnc(-c4ccccc4)o3)o2)c(Cl)c1`: the “hERG current change (%, negative = inhibition) at 10uM” value was found to be 2.78%.

Consider `NC(=O)c1nsc(C(=O)N(c2ccccc2)C(C(=O)NCC2CCCO2)c2ccc(F)cc2)c1N` (stereo not shown), for which the “hERG current change (%, negative = inhibition) at 10uM” value is listed as 18.4%.

With `O=C(NCCCNC(=O)c1ccccn1)c1ccccn1`, the “hERG current change (%, negative = inhibition) at 10uM” value worked out at 10.7%.

Take `CCOc1ccc(S(=O)(=O)NCCC(=O)Nc2ccncc2)cc1`: the “hERG current change (%, negative = inhibition) at 10uM” value was -21%.

For the molecule `Cc1ccc(-n2c(=O)c3sccc3n(Cc3cc(=O)n4ccccc4n3)c2=O)cc1`, the “hERG current change (%, negative = inhibition) at 10uM” value is -45.6%.

Consider `Cc1c(/C=N\NC(=O)C2COc3ccccc3O2)c2ccccc2n1C` (stereo not shown), for which the “hERG current change (%, negative = inhibition) at 10uM” value is reported as 15.5%.

`O=C(O)CC1(CC(=O)Nc2cc3ccccc3cn2)CCCCC1`: the “hERG current change (%, negative = inhibition) at 10uM” value came out at 2.02%.

With `COc1ccc(CNC(=O)C(c2ccco2)N(C(=O)c2snc(C(N)=O)c2N)c2ccccc2OC)cc1` (stereo not shown), the “hERG current change (%, negative = inhibition) at 10uM” value is given as -43.3%.

Take `COc1ccc2c(c1)N(S(=O)(=O)c1ccccc1)CCC2=O`: the “hERG current change (%, negative = inhibition) at 10uM” value is -1.71%.

For `O=C(NCc1ccco1)c1cc(C(=O)C2CC2)c[nH]1`, the “hERG current change (%, negative = inhibition) at 10uM” value was 4.05%.

With `O=C(CCCN=C1NS(=O)(=O)c2ccccc21)OCC(=O)c1ccc(F)c(F)c1`, the “hERG current change (%, negative = inhibition) at 10uM” value is -37%.

Regarding `O=C1CC(=O)C(n2cncn2)C(c2ccc(Cl)cc2)C1` (stereo not shown), the “hERG current change (%, negative = inhibition) at 10uM” value stood at 20.3%.

Regarding `CCN(C(=O)c1ccc2c(=O)n3c(nc2c1)CCCCC3)c1cc(OC)ccc1OC`, the “hERG current change (%, negative = inhibition) at 10uM” value is -2.39%.

Turning to `Cn1c(NC(=O)C2CC2)cc(=O)n(C)c1=O`, the “hERG current change (%, negative = inhibition) at 10uM” value is -11.6%.

Take `CC(C)c1cc(C(=O)NNC(=S)NCc2ccco2)c(O)c(C(C)C)c1`: the “hERG current change (%, negative = inhibition) at 10uM” value was determined as 7.37%.

With `CCOC(=O)c1c(S(=O)(=O)NCC(=O)Nc2ccccc2)c(C)n(C)c1C`, the “hERG current change (%, negative = inhibition) at 10uM” value amounted to 6.22%.

Turning to `Cn1c(CO)cnc1SCc1ccc(Cl)cc1`, the “hERG current change (%, negative = inhibition) at 10uM” value is on record as 0.94%.

As for `O=C1CCCN1c1ccc(CNS(=O)(=O)c2ccc(F)cc2)cc1`, the “hERG current change (%, negative = inhibition) at 10uM” value is 9.5%.

For `COc1ccc2sc3c(=O)[nH]c4ccccc4c3c2c1`, the “hERG current change (%, negative = inhibition) at 10uM” value is recorded as -0.316%.

As to `O=C(O)CCC(=O)Nc1ccc(NC(=O)c2ccc(Cl)cc2Cl)c(Cl)c1`, the “hERG current change (%, negative = inhibition) at 10uM” value is given as 21.6%.

On to `CCOc1cc(-c2c(C#N)c(N)nc3c2CCc2ccccc2-3)ccc1O`, for which the “hERG current change (%, negative = inhibition) at 10uM” value is 12.7%.

Regarding `Cc1ccc(/C=C2\CCC(C3CCCC3)C2=O)cc1` (stereo not shown), the “hERG current change (%, negative = inhibition) at 10uM” value stood at 4.78%.

Regarding `CCOc1ccc(N(C)S(=O)(=O)c2cc(-c3cc(C)no3)ccc2C(C)C)cc1`, the “hERG current change (%, negative = inhibition) at 10uM” value is listed as 4.4%.

For the molecule `FC(F)(F)c1ccc2c(c1)NP(=S)(N1CCOCC1)c1nccn1-2` (stereo not shown), the “hERG current change (%, negative = inhibition) at 10uM” value was -23.3%.

In the case of `COc1ccc(OC)c(/C=C/C(=O)OCC(=O)Nc2ccc(Cl)c(S(=O)(=O)N(C)C)c2)c1`, the “hERG current change (%, negative = inhibition) at 10uM” value is reported as 26.4%.

In the case of `N#CCC(=O)N/N=C\c1ccccc1OC/C=C/c1ccccc1`, the “hERG current change (%, negative = inhibition) at 10uM” value is 15.1%.

Consider `COc1ccc(OCC(=O)N/N=C(\CCC(=O)O)c2cccs2)cc1`, for which the “hERG current change (%, negative = inhibition) at 10uM” value is on record as 15.1%.

Consider `NC(=O)CC(NC(=O)c1cccc(Br)c1)c1ccc(NC2CCN(Cc3ccccc3)CC2)c([N+](=O)[O-])c1` (stereo not shown), for which the “hERG current change (%, negative = inhibition) at 10uM” value worked out at 6.8%.

In the case of `CC(C)=Cc1oc2ccc([N+](=O)[O-])cc2c1N1CCOCC1`, the “hERG current change (%, negative = inhibition) at 10uM” value is recorded as 16.6%.

`CSCCC(NC(=O)c1ccc([N+](=O)[O-])cc1Cl)C(=O)OCC(=O)NC1CCCC(C)C1C` (stereo not shown): the “hERG current change (%, negative = inhibition) at 10uM” value was -38.3%.

As for `CCOc1ccc(NC(=S)NC(C)C(c2ccccc2)N2CCN(C)CC2)cc1` (stereo not shown), the “hERG current change (%, negative = inhibition) at 10uM” value is -58.5%.

Take `CC1CN(S(=O)(=O)c2ccccc2)C(C)N1C(=O)N1CCOCC1` (stereo not shown): the “hERG current change (%, negative = inhibition) at 10uM” value came out at 7.79%.

As to `Cc1cccc(NC(=O)CN(C)C(=O)C2CCCC2)c1C`, the “hERG current change (%, negative = inhibition) at 10uM” value was determined as 8.86%.

Regarding `Cc1cc(NC(=O)CSc2nc3c(C)c(C)ccc3cc2C)no1`, the “hERG current change (%, negative = inhibition) at 10uM” value is reported as -44.6%.
